# Laboratory results: the supplement of paper PMC8728848
# The other results are listed elsewhere or left out.
# Experiments:
# Assay in all cases: glycan array binding signal (z-score within array); higher = stronger binding
# Conditions in all cases: glycan notation: IUPAC condensed, linker removed
# [1] = target: Neu5Ac(a2-3)Gal(b1-3)GlcNAc
# Method in brief: (§1)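 The Consortium for Functional Glycomics database supplied 3228 glycan arrays, of which those lacking an available protein sequence were dropped. The binding signal, a within-array Z-score, was averaged across arrays of the same protein sequence and across linkers. Negative scores can be read as non-binding.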
# [2] = target: Neu5Ac(a2-3)Gal(b1-3)GlcNAc(b1-3)Gal(b1-4)GlcNAc
# Method in brief: as §1
# [3] = target: Neu5Ac(a2-3)Gal(b1-3)GlcNAc6S
# Method in brief: as §1
# [4] = target: Neu5Ac(a2-3)Gal(b1-3)[Fuc(a1-4)]GlcNAc
# Method in brief: as §1
# [5] = target: Neu5Ac(a2-3)Gal(b1-3)[Fuc(a1-4)]GlcNAc(b1-3)Gal(b1-4)[Fuc(a1-3)]GlcNAc
# Method in brief: as §1
# [6] = target: Neu5Ac(a2-3)Gal(b1-3)[Neu5Ac(a2-3)Gal(b1-4)]GlcNAc
# Method in brief: as §1
# [7] = target: Neu5Ac(a2-3)Gal(b1-3)[Neu5Ac(a2-6)]GalNAc
# Method in brief: as §1
# [8] = target: Neu5Ac(a2-3)Gal(b1-4)Glc
# Method in brief: as §1
# [9] = target: Neu5Ac(a2-3)Gal(b1-4)GlcNAc
# Method in brief: as §1
# [10] = target: Neu5Ac(a2-3)Gal(b1-4)GlcNAc(b1-3)Gal(b1-4)GlcNAc
# Method in brief: as §1
# [11] = target: Neu5Ac(a2-3)Gal(b1-4)GlcNAc(b1-3)Gal(b1-4)GlcNAc(b1-3)Gal(b1-4)GlcNAc
# Method in brief: as §1
# [12] = target: Neu5Ac(a2-3)Gal(b1-4)GlcNAc(b1-3)Gal(b1-4)[Fuc(a1-3)]GlcNAc
# Method in brief: as §1
# [13] = target: Neu5Ac(a2-3)Gal(b1-4)GlcNAc6S
# Method in brief: as §1
# [14] = target: Neu5Ac(a2-3)Gal(b1-4)[Fuc(a1-3)]GlcNAc
# Method in brief: as §1
# [15] = target: Neu5Ac(a2-3)Gal(b1-4)[Fuc(a1-3)]GlcNAc(b1-3)Gal
# Method in brief: as §1
# [16] = target: Neu5Ac(a2-3)Gal(b1-4)[Fuc(a1-3)]GlcNAc(b1-3)Gal(b1-4)GlcNAc
# Method in brief: as §1
# [17] = target: Neu5Ac(a2-3)Gal(b1-4)[Fuc(a1-3)]GlcNAc(b1-3)Gal(b1-4)[Fuc(a1-3)]GlcNAc(b1-3)Gal(b1-4)[Fuc(a1-3)]GlcNAc
# Method in brief: as §1
# [18] = target: Neu5Ac(a2-3)Gal(b1-4)[Fuc(a1-3)]GlcNAc6S
# Method in brief: as §1
# [19] = target: Neu5Ac(a2-3)Gal6S(b1-4)GlcNAc
# Method in brief: as §1
# [20] = target: Neu5Ac(a2-3)Gal6S(b1-4)[Fuc(a1-3)]GlcNAc
# Method in brief: as §1
# [21] = target: Neu5Ac(a2-3)GalNAc
# Method in brief: as §1
# [22] = target: Neu5Ac(a2-3)GalNAc(b1-4)GlcNAc
# Method in brief: as §1
# [23] = target: Neu5Ac(a2-3)[GalNAc(b1-4)]Gal(b1-4)Glc
# Method in brief: as §1
# [24] = target: Neu5Ac(a2-3)[GalNAc(b1-4)]Gal(b1-4)GlcNAc
# Method in brief: as §1
# [25] = target: Neu5Ac(a2-3)[Neu5Ac(a2-6)]GalNAc
# Method in brief: as §1
# [26] = target: Neu5Ac(a2-6)Gal(b1-4)GlcNAc
# Method in brief: as §1
# [27] = target: Neu5Ac(a2-6)Gal(b1-4)GlcNAc(b1-2)Man(a1-3)[Neu5Ac(a2-6)Gal(b1-4)GlcNAc(b1-2)Man(a1-6)]Man(b1-4)GlcNAc(b1-4)GlcNAc
# Method in brief: as §1
# [28] = target: Neu5Ac(a2-6)Gal(b1-4)GlcNAc(b1-3)Gal(b1-4)GlcNAc
# Method in brief: as §1
# [29] = target: Neu5Ac(a2-6)Gal(b1-4)GlcNAc(b1-3)Gal(b1-4)[Fuc(a1-3)]GlcNAc(b1-3)Gal(b1-4)[Fuc(a1-3)]GlcNAc
# Method in brief: as §1
# [30] = target: Neu5Ac(a2-6)Gal(b1-4)GlcNAc6S
# Method in brief: as §1
# [31] = target: Neu5Ac(a2-6)GalNAc
# Method in brief: as §1
# [32] = target: Neu5Ac(a2-6)GalNAc(b1-4)GlcNAc
# Method in brief: as §1
# [33] = target: Neu5Ac(a2-8)Neu5Ac
# Method in brief: as §1
# [34] = target: Neu5Ac(a2-8)Neu5Ac(a2-3)Gal(b1-4)Glc
# Method in brief: as §1
# [35] = target: Neu5Ac(a2-8)Neu5Ac(a2-3)[GalNAc(b1-4)]Gal(b1-4)Glc
# Method in brief: as §1
# [36] = target: Neu5Ac(a2-8)Neu5Ac(a2-8)Neu5Ac
# Method in brief: as §1
# [37] = target: Neu5Ac(a2-8)Neu5Ac(a2-8)Neu5Ac(a2-3)Gal(b1-4)Glc
# Method in brief: as §1
# [38] = target: Neu5Ac(a2-8)Neu5Ac(a2-8)Neu5Ac(a2-3)[GalNAc(b1-4)]Gal(b1-4)Glc
# Method in brief: as §1
binder,measurement,setting,value
Alpha-agglutinin (Saccharomyces cerevisiae) (protein) MFTFLKIILWLFSLALASAININDITFSNLEITPLTANKQPDQGWTATFDFSIADASSIREGDEFTLSMPHVYRIKLLNSSQTATISLADGTEAFKCYVSQQAAYLYENTTFTCTAQNDLSSYNTIDGSITFSLNFSDGGSSYEYELENAKFFKSGPMLVKLGNQMSDVVNFDPAAFTENVFHSGRSTGYGSFESYHLGMYCPNGYFLGGTEKIDYDSSNNNVDLDCSSVQVYSSNDFNDWWFPQSYNDTNADVTCFGSNLWITLDEKLYDGEMLWVNALQSLPANVNTIDHALEFQYTCLDTIANTTYATQFSTTREFIVYQGR,glycan array binding signal (z-score),[1],-0.266
same,glycan array binding signal (z-score),[2],-0.259
same,glycan array binding signal (z-score),[3],-0.179
same,glycan array binding signal (z-score),[4],-0.214
same,glycan array binding signal (z-score),[5],-0.231
same,glycan array binding signal (z-score),[6],-0.231
same,glycan array binding signal (z-score),[7],-0.251
same,glycan array binding signal (z-score),[8],-0.25
same,glycan array binding signal (z-score),[9],-0.264
same,glycan array binding signal (z-score),[10],-0.265
same,glycan array binding signal (z-score),[11],-0.261
same,glycan array binding signal (z-score),[12],-0.262
same,glycan array binding signal (z-score),[13],-0.253
same,glycan array binding signal (z-score),[14],-0.258
same,glycan array binding signal (z-score),[15],-0.243
same,glycan array binding signal (z-score),[16],-0.162
same,glycan array binding signal (z-score),[17],-0.131
same,glycan array binding signal (z-score),[18],-0.252
same,glycan array binding signal (z-score),[19],-0.225
same,glycan array binding signal (z-score),[20],-0.255
same,glycan array binding signal (z-score),[21],-0.213
same,glycan array binding signal (z-score),[22],-0.244
same,glycan array binding signal (z-score),[23],-0.258
same,glycan array binding signal (z-score),[24],-0.255
same,glycan array binding signal (z-score),[25],-0.272
same,glycan array binding signal (z-score),[26],-0.259
same,glycan array binding signal (z-score),[27],-0.206
same,glycan array binding signal (z-score),[28],-0.248
same,glycan array binding signal (z-score),[29],-0.258
same,glycan array binding signal (z-score),[30],-0.23
same,glycan array binding signal (z-score),[31],-0.193
same,glycan array binding signal (z-score),[32],-0.229
same,glycan array binding signal (z-score),[33],-0.116
same,glycan array binding signal (z-score),[34],-0.25
same,glycan array binding signal (z-score),[35],-0.105
same,glycan array binding signal (z-score),[36],-0.261
same,glycan array binding signal (z-score),[37],-0.253
same,glycan array binding signal (z-score),[38],-0.254
